In PMC4336329 (PLoS ONE, 2015):
In all, about 310,000 compounds went through this assay and about 2,200 (0.71%) showed an effect of 50% or more. Effects have a minus sign here. The list shows a part of the results.

molecular target: human ether-à-go-go-related gene (hERG) potassium channel (human, UniProt Q12809); assay: primary screen, population patch clamp on CHO cells stably expressing hERG
Sequence (Q12809 whole entry, looked up): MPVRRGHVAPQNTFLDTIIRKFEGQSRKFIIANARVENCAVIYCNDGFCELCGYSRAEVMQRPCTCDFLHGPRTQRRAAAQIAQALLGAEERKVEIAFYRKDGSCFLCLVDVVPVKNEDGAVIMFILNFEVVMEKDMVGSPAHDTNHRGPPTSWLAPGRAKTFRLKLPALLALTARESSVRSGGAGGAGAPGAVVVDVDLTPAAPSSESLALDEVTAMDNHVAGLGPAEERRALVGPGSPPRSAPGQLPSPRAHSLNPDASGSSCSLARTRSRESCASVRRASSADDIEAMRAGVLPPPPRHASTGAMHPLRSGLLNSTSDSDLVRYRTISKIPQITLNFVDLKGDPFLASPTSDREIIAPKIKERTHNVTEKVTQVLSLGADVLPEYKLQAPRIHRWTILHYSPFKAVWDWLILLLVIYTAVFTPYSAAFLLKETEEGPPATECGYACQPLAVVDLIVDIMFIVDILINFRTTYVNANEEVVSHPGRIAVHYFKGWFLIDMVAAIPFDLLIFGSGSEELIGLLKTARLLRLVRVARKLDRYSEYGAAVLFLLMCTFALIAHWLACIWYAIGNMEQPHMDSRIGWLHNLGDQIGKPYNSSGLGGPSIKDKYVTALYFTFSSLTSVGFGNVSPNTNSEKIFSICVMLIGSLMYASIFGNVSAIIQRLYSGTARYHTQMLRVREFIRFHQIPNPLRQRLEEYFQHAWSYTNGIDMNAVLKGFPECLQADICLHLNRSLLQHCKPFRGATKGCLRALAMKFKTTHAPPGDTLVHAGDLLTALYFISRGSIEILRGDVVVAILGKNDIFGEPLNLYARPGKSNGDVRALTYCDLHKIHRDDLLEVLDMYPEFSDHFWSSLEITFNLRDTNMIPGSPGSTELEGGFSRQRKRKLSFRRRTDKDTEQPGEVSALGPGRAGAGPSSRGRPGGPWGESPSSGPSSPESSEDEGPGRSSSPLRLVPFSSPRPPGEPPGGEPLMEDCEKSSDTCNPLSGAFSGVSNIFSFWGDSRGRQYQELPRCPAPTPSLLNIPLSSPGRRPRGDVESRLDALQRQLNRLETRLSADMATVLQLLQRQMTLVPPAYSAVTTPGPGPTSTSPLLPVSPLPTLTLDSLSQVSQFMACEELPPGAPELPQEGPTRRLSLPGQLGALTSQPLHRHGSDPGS

Going from CCc1ccc(NC(=O)CCCN2C(=S)NC(C)(C)CC2C)cc1 (stereo not drawn) to O=C(CCS(=O)(=O)c1cccs1)Nc1ccc(C(=O)NCc2ccc(F)cc2)cc1, the “hERG current change (%, negative = inhibition) at 1uM” value rises from 2.1% to 17.9%.

First: CC(C)(C)OC(=O)NCCCC[C@H](NC(=O)c1nc[nH]c1C(=O)NC1CCN(C(=O)OC(C)(C)C)CC1)C(=O)OC(C)(C)C
Second: CC(C)(C)OC(=O)CNC(=O)c1[nH]cnc1C(=O)N[C@@H](Cc1ccccc1)C(=O)OCc1ccccc1
The “hERG current change (%, negative = inhibition) at 1uM” value of the first is higher: 12.8% for the first, 8.27% for the second.

First: Cc1nc(-c2ccc(NS(=O)(=O)c3ccccc3)cc2)cs1
Second: Br.O=S(=O)(c1ccc(-c2csc(Nc3ccc(F)cc3)n2)cc1)N1CCCC1
The “hERG current change (%, negative = inhibition) at 1uM” value of the first is higher: 9.38% for the first, 2.89% for the second.

First: CCn1c(CNC(=O)C23CC4CC(CC(C4)C2)C3)nnc1SC
Second: COc1cc(OC)cc(C(=O)NCC2CCCN(Cc3ccc(SC)cc3)C2)c1 (stereo not drawn)
The “hERG current change (%, negative = inhibition) at 1uM” value of the first is higher: 12.6% for the first, -34.6% for the second.

Going from CCCC(=O)Nc1ccccc1NC(=O)CN(C)S(=O)(=O)c1ccccc1 to CCCCn1c(=O)c(C(=O)Nc2ccccc2)c(O)c2ccccc21, the “hERG current change (%, negative = inhibition) at 1uM” value rises from 9.94% to 10.9%.

Compared with O=S(=O)(c1ccccc1)n1ccc2ccccc21, O=C(c1cnn(Cc2ccccc2)c1)N1CCN(S(=O)(=O)/C=C/c2ccccc2)CC1 is lower in “hERG current change (%, negative = inhibition) at 1uM” value: 1.75% for the first, -2.7% for the second.

Going from CC(=O)c1ccc(-n2nnnc2SCC(=O)Nc2cccc(NC(=O)c3ccco3)c2)cc1 to Cc1ccc(-n2nnnc2SCC(=O)Nc2ncc(Cc3ccccc3Cl)s2)cc1, the “hERG current change (%, negative = inhibition) at 1uM” value falls from 8.93% to -3.4%.

Going from Cc1ccc(-n2nc3c(=O)n(C(C)C(=O)NCc4ccc5c(c4)OCO5)nc(C)c3c2C)cc1 (stereo not drawn) to Cc1onc(-c2c(F)cccc2Cl)c1C(=O)NCc1ccc2c(c1)OCO2, the “hERG current change (%, negative = inhibition) at 1uM” value falls from 18.8% to 14%.

Compared with O=C1/C(=C/c2ccc(N3CCCC3)cc2)NC(=S)N1C1CC1, O=C(c1ccc(N2CCCC2=O)cc1)N1CCCCCC1 is higher in “hERG current change (%, negative = inhibition) at 1uM” value: 0.0667% for the first, 11.1% for the second.

First: COc1ccc(/C=C/C(=O)OCC(=O)NCCNC(=O)COC(=O)/C=C/c2ccc(OC)cc2)cc1
Second: COc1ccc(C2CC(=O)N(CCC[NH+](C)CCc3ccc(OC)c(OC)c3)C2)cc1.O=C([O-])C(=O)[O-] (stereo not drawn)
The “hERG current change (%, negative = inhibition) at 1uM” value of the first is higher: 21.1% for the first, -72.9% for the second.

Going from O=C(O)Cn1cc(/C=C2\C(=O)NC(=O)N(c3ccc(Cl)cc3)C2=O)c2ccccc21 to O=C1CN(C(=O)COC(=O)CCNS(=O)(=O)c2ccc(Cl)cc2)c2ccccc2N1, the “hERG current change (%, negative = inhibition) at 1uM” value falls from 14.7% to -5.53%.

First: CCOC(=O)/C=C1\NC(=O)CS1
Second: CCOC(=O)C(C)Sc1cnccn1 (stereo not drawn)
The “hERG current change (%, negative = inhibition) at 1uM” value of the first is higher: 17.1% for the first, 14.3% for the second.

Compared with O=C(CCNS(=O)(=O)c1ccc(Cl)cc1)Nc1ccncc1, Cn1c(=O)c2c(ncn2CC(=O)OCC(=O)Nc2ccc(Cl)cc2)n(C)c1=O is lower in “hERG current change (%, negative = inhibition) at 1uM” value: 15.3% for the first, 6.83% for the second.

Going from COc1cccc(C2CC(c3cccs3)=NN2C(=O)CSc2nc3c(cnn3-c3ccc(F)cc3)c(=O)[nH]2)c1OC (stereo not drawn) to COC(=O)C1(C)NC(c2ccc(F)cc2)C2C(=O)N(c3ccc(C)cc3)C(=O)C21 (stereo not drawn), the “hERG current change (%, negative = inhibition) at 1uM” value rises from 9.39% to 12.7%.

First: CCN(CC)c1ccc(/C=N/NC(=O)c2ccoc2C)c(O)c1
Second: CCN(CC)C(C(=O)Nc1ccc(C(C)C)cc1)c1ccc2c(c1)OCO2 (stereo not drawn)
The “hERG current change (%, negative = inhibition) at 1uM” value of the first is higher: 11.7% for the first, 6.12% for the second.

Compared with O=C(NCc1ccncc1)c1cn(-c2ccccc2)nc1-c1cccnc1, CCOc1ccccc1NC(=O)c1ccc(-n2cncn2)nc1 is higher in “hERG current change (%, negative = inhibition) at 1uM” value: -16.6% for the first, 15.4% for the second.

First: Cc1nnc(N(C)C(=O)c2cccnc2)s1
Second: Cc1nc(C)c(-c2ccc(SCC(=O)Nc3cccc(Cl)c3)nn2)s1
The “hERG current change (%, negative = inhibition) at 1uM” value of the first is higher: 11.7% for the first, 8.55% for the second.

First: COc1cccc(C(=O)NC(=S)NCc2ccco2)c1
Second: N#Cc1ccc(CN2CCN(C(=O)c3ccc(S(=O)(=O)NCc4ccco4)cc3)CC2)cc1
The “hERG current change (%, negative = inhibition) at 1uM” value of the first is higher: 9.85% for the first, -6.1% for the second.

Going from CC1CCN(CCCCOc2ccc([N+](=O)[O-])cc2)CC1 to CCCOc1ccc(C(CC(=O)O)NC(=O)c2cccs2)cc1 (stereo not drawn), the “hERG current change (%, negative = inhibition) at 1uM” value rises from -77.8% to 17.2%.

Compared with O=C(O)CN1C(=O)C2C3CC(C2C1=O)C1C(c2ccc(F)cc2)c2sc(=O)[nH]c2SC31 (stereo not drawn), NC(=O)CSc1cn(Cc2cccc(F)c2)c2ccccc12 is higher in “hERG current change (%, negative = inhibition) at 1uM” value: 1.95% for the first, 12.2% for the second.

First: COc1ccc(-c2sc(NC(C)=O)nc2-c2ccccc2)cc1
Second: COc1ccc(-c2nc(C#N)c(NCCN(C)C)o2)cc1
The “hERG current change (%, negative = inhibition) at 1uM” value of the first is higher: 16.7% for the first, 9.12% for the second.

Compared with Cc1cc(C(=O)N2CCC(C(F)(F)F)n3nccc32)on1 (stereo not drawn), Cc1ccc(Cn2nnnc2CN2CCC(n3nnc4ccccc43)CC2)cc1.Cl is lower in “hERG current change (%, negative = inhibition) at 1uM” value: 7% for the first, -14.7% for the second.

Going from CC(=O)Nc1ccc2c(c1)CN(c1cc(C)ccc1C)CO2 to CC1=C(C(=O)Nc2ccc(C(=O)N3CCN(c4cccc(Cl)c4)CC3)cc2)SCCO1, the “hERG current change (%, negative = inhibition) at 1uM” value rises from 1.45% to 5.5%.

Going from COc1ccc2cc(CN(CC3CCCO3)S(=O)(=O)c3ccc(C(C)=O)cc3)c(=O)[nH]c2c1 (stereo not drawn) to Cc1ccc(CNC(=O)C2CCCN(S(=O)(=O)c3ccc(-n4cnnn4)cc3)C2)cc1 (stereo not drawn), the “hERG current change (%, negative = inhibition) at 1uM” value rises from -6.74% to 2.87%.

Going from O=C1CCC(=O)N1OCCCOc1ccc2c(c1)CCC2 to CCc1nn(CC(=O)NCCN2CCN(C)CC2)c(=O)c2cc3c(OC)cccc3n12, the “hERG current change (%, negative = inhibition) at 1uM” value falls from 10.8% to 9.23%.

First: O=c1cc(CSc2nnc(C3CC3)n2Cc2ccccc2)nc2sccn12
Second: Cc1ccccc1-n1c(SCC(=O)c2c(N)n(C3CC3)c(=O)[nH]c2=O)nnc1N1CCOCC1
The “hERG current change (%, negative = inhibition) at 1uM” value of the first is higher: 10.6% for the first, 2.27% for the second.

Compared with CC(=O)c1sc(NC(=O)c2cccs2)nc1C, O=S(=O)(c1cccc(NC(=S)N2CCN(c3ccc(F)cc3)CC2)c1)C(F)F is lower in “hERG current change (%, negative = inhibition) at 1uM” value: 18.6% for the first, 6.53% for the second.
